# Reference: the supplement of paper PMC10037445
# In all, about 2,900 compounds were measured (“IRF Lucia reporter activity, fold change vs agonist alone”: median about 0.9, highest 2% from about 2.8 on). Some of the results follow.
# Key:
# RAW-Dual [1] = assay: IRF Lucia reporter activity, fold change vs agonist alone; cytotoxicity flag (confluency mask): not cytotoxic; higher = enhanced IRF activity
# How it was run: (§1)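 After 50 nL of library stock was delivered by pin tool to RAW-Dual macrophages (50,000 cells/well, DMEM, 384-well plates), a PRR agonist was added 1 h later and the plates were kept at 37 °C, 5% CO2. Twenty hours later, IRF was read from supernatant by QuantiLuc luminescence and NF-κB by QuantiBlue absorbance at 620 nm. Reporter activity is stated as fold change over agonist-alone wells. Wells with IncuCyte confluency under 70% of agonist controls in both mask sets were counted as cytotoxic.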
# RAW-Dual [2] = assay: IRF Lucia reporter activity, fold change vs agonist alone; cytotoxicity flag (confluency mask): cytotoxic (confluency <70% of control); higher = enhanced IRF activity
# How it was run: as §1
# RAW-Dual [3] = assay: IRF Lucia reporter activity, fold change vs agonist alone; higher = enhanced IRF activity; details: agonist: MPLA (TLR4) […]
# How it was run: as §1
# [4] = agonist: 3'3'-cGAMP (STING) 10 ug/mL
# [5] = library stock concentration (final ~1000-fold dilution): 10 mM, cytotoxicity flag (confluency mask): cytotoxic (confluency <70% of control)
# [6] = library stock concentration (final ~1000-fold dilution): 10 mM water, cytotoxicity flag (confluency mask): not cytotoxic
# [7] = library stock concentration (final ~1000-fold dilution): 10 mM, cytotoxicity flag (confluency mask): not cytotoxic
structure (smiles),measurement,setting,value
N=C(N)NCCCC(N)C(=O)NC(CCCNC(=N)N)C(=O)NC(CCCNC(=N)N)C(=O)NC(CCCNC(=N)N)C(=O)NC(CCCNC(=N)N)C(=O)NC(CCCNC(=N)N)C(=O)NC(CCCNC(=N)N)C(=O)NC(CCCNC(=N)N)C(=O)NC(CCCNC(=N)N)C(=O)NC(CS)C(=O)NC(CCC(N)=O)C(=O)NC(CS)C(=O)NC(CCCNC(=N)N)C(=O)NC(CCCNC(=N)N)C(=O)NC(CCCCN)C(=O)NC(CC(N)=O)C(=O)O (stereo unspecified) (library stock concentration (final ~1000-fold dilution): 10 mM water),IRF Lucia reporter activity,RAW-Dual [1]; [4],0.977
same,IRF Lucia reporter activity,RAW-Dual [1]; agonist: LPS (TLR4) 0.1 ug/mL,0.488
C(#Cc1nc2ncccc2nc1OCCN1CCCC1)c1ccccc1 (library stock concentration (final ~1000-fold dilution): 10 mM),IRF Lucia reporter activity,RAW-Dual [2]; [4],0.0185
same,IRF Lucia reporter activity,RAW-Dual [2]; agonist: LPS (TLR4) 0.1 ug/mL,0.0176
C(#Cc1nc2ncccc2nc1OCCN1CCCC1)c1ccccc1,IRF Lucia reporter activity,RAW-Dual [3]; [5],0.0252
CCC(C)CC(C)CCCCCCCCC(=O)NC1CC(O)C(NCCN)NC(=O)C2C(O)CCN2C(=O)C(C(O)CCN)NC(=O)C(C(O)C(O)c2ccc(O)cc2)NC(=O)C2CC(O)CN2C(=O)C(C(C)O)NC1=O (stereo unspecified),IRF Lucia reporter activity,RAW-Dual [3]; [6],1.21
CCC(C)CC(C)CCCCCCCCC(=O)NC1CC(O)C(NCCN)NC(=O)C2C(O)CCN2C(=O)C(C(O)CCN)NC(=O)C(C(O)C(O)c2ccc(O)cc2)NC(=O)C2CC(O)CN2C(=O)C(C(C)O)NC1=O (stereo unspecified) (library stock concentration (final ~1000-fold dilution): 10 mM water),IRF Lucia reporter activity,RAW-Dual [1]; [4],0.923
same,IRF Lucia reporter activity,RAW-Dual [1]; agonist: LPS (TLR4) 0.1 ug/mL,0.909
CC(=O)ON=C1C(c2c(O)[nH]c3cc(Br)ccc23)=Nc2ccccc21 (library stock concentration (final ~1000-fold dilution): 10 mM),IRF Lucia reporter activity,RAW-Dual [1]; [4],0.948
same,IRF Lucia reporter activity,RAW-Dual [1]; agonist: LPS (TLR4) 0.1 ug/mL,0.0378
CC(C(=O)O)c1ccc(C(=O)c2cccs2)cc1 (stereo unspecified),IRF Lucia reporter activity,RAW-Dual [3]; [7],0.796
CC(C(=O)O)c1ccc(C(=O)c2cccs2)cc1 (stereo unspecified) (library stock concentration (final ~1000-fold dilution): 10 mM),IRF Lucia reporter activity,RAW-Dual [1]; [4],1.14
same,IRF Lucia reporter activity,RAW-Dual [1]; agonist: LPS (TLR4) 0.1 ug/mL,1.07
CN1CCN(c2nc(C3=C(c4c[nH]c5ccccc45)C(=O)NC3=O)c3ccccc3n2)CC1,IRF Lucia reporter activity,RAW-Dual [3]; [5],0.385
CN1CCN(c2nc(C3=C(c4c[nH]c5ccccc45)C(=O)NC3=O)c3ccccc3n2)CC1 (library stock concentration (final ~1000-fold dilution): 10 mM),IRF Lucia reporter activity,RAW-Dual [2]; [4],0.0964
same,IRF Lucia reporter activity,RAW-Dual [2]; agonist: LPS (TLR4) 0.1 ug/mL,0.337
COc1cc2ncnc(Nc3ccc(F)c(Cl)c3)c2cc1OCCCN1CCOCC1 (library stock concentration (final ~1000-fold dilution): 10 mM),IRF Lucia reporter activity,RAW-Dual [2]; [4],0.703
same,IRF Lucia reporter activity,RAW-Dual [2]; agonist: LPS (TLR4) 0.1 ug/mL,0.943
COc1cc2ncnc(Nc3ccc(F)c(Cl)c3)c2cc1OCCCN1CCOCC1,IRF Lucia reporter activity,RAW-Dual [3]; [5],0.922
CN1CCN(Cc2ccc(NC(=O)Nc3ccc(Oc4ccnc(N)n4)cc3)cc2C(F)(F)F)CC1 (library stock concentration (final ~1000-fold dilution): 10 mM),IRF Lucia reporter activity,RAW-Dual [2]; [4],0.0139
same,IRF Lucia reporter activity,RAW-Dual [2]; agonist: LPS (TLR4) 0.1 ug/mL,0.0154
CC[N+](CC)(CC)CCOc1cccc(OCC[N+](CC)(CC)CC)c1OCC[N+](CC)(CC)CC (library stock concentration (final ~1000-fold dilution): 10 mM),IRF Lucia reporter activity,RAW-Dual [1]; [4],0.993
same,IRF Lucia reporter activity,RAW-Dual [1]; agonist: LPS (TLR4) 0.1 ug/mL,1.07
CC[N+](CC)(CC)CCOc1cccc(OCC[N+](CC)(CC)CC)c1OCC[N+](CC)(CC)CC,IRF Lucia reporter activity,RAW-Dual [3]; [7],1
CSCCNc1nc(SCCC(F)(F)F)nc2c1ncn2C1OC(COP(=O)(O)OP(=O)(O)C(Cl)(Cl)P(=O)(O)O)C(O)C1O (stereo unspecified),IRF Lucia reporter activity,RAW-Dual [3]; [6],1.4
CSCCNc1nc(SCCC(F)(F)F)nc2c1ncn2C1OC(COP(=O)(O)OP(=O)(O)C(Cl)(Cl)P(=O)(O)O)C(O)C1O (stereo unspecified) (library stock concentration (final ~1000-fold dilution): 10 mM water),IRF Lucia reporter activity,RAW-Dual [1]; [4],1.33
same,IRF Lucia reporter activity,RAW-Dual [1]; agonist: LPS (TLR4) 0.1 ug/mL,1.03
Cn1cc(-c2ccc(S(=O)(=O)n3ccc(/C=C/C(=O)Nc4ccccc4N)c3)cc2)cn1 (library stock concentration (final ~1000-fold dilution): 10 mM),IRF Lucia reporter activity,RAW-Dual [2]; [4],0.0173
same,IRF Lucia reporter activity,RAW-Dual [2]; agonist: LPS (TLR4) 0.1 ug/mL,0.578
Cn1cc(-c2ccc(S(=O)(=O)n3ccc(/C=C/C(=O)Nc4ccccc4N)c3)cc2)cn1,IRF Lucia reporter activity,RAW-Dual [3]; [5],0.681
CCc1oc2ccccc2c1C(=O)c1cc(Br)c(O)c(Br)c1,IRF Lucia reporter activity,RAW-Dual [3]; [7],1.06
CCc1oc2ccccc2c1C(=O)c1cc(Br)c(O)c(Br)c1 (library stock concentration (final ~1000-fold dilution): 10 mM),IRF Lucia reporter activity,RAW-Dual [1]; [4],1.05
same,IRF Lucia reporter activity,RAW-Dual [1]; agonist: LPS (TLR4) 0.1 ug/mL,0.956
CN1C(CC(=O)c2ccccc2)CCCC1CC(O)c1ccccc1.Cl (stereo unspecified) (library stock concentration (final ~1000-fold dilution): 10 mM),IRF Lucia reporter activity,RAW-Dual [1]; [4],0.838
same,IRF Lucia reporter activity,RAW-Dual [1]; agonist: LPS (TLR4) 0.1 ug/mL,0.784
CN1C(CC(=O)c2ccccc2)CCCC1CC(O)c1ccccc1.Cl (stereo unspecified),IRF Lucia reporter activity,RAW-Dual [3]; [7],0.731
Cc1ccccc1N=Nc1ccc(NC(=O)c2ccnn2C)c(C)c1 (library stock concentration (final ~1000-fold dilution): 10 mM),IRF Lucia reporter activity,RAW-Dual [1]; [4],1.11
same,IRF Lucia reporter activity,RAW-Dual [1]; agonist: LPS (TLR4) 0.1 ug/mL,1.17
COC1OC(COS(=O)(=O)O)C(OC2OC(C(=O)O)C(OC3OC(COS(=O)(=O)O)C(OC4OC(C(=O)O)C(OC5OC(COS(=O)(=O)O)C(O)C(O)C5NS(=O)(=O)O)C(O)C4O)C(OS(=O)(=O)O)C3NS(=O)(=O)O)C(O)C2OS(=O)(=O)O)C(O)C1NS(=O)(=O)O (stereo unspecified),IRF Lucia reporter activity,RAW-Dual [3]; [6],1.37
COC1OC(COS(=O)(=O)O)C(OC2OC(C(=O)O)C(OC3OC(COS(=O)(=O)O)C(OC4OC(C(=O)O)C(OC5OC(COS(=O)(=O)O)C(O)C(O)C5NS(=O)(=O)O)C(O)C4O)C(OS(=O)(=O)O)C3NS(=O)(=O)O)C(O)C2OS(=O)(=O)O)C(O)C1NS(=O)(=O)O (stereo unspecified) (library stock concentration (final ~1000-fold dilution): 10 mM water),IRF Lucia reporter activity,RAW-Dual [1]; [4],1.42
same,IRF Lucia reporter activity,RAW-Dual [1]; agonist: LPS (TLR4) 0.1 ug/mL,0.937
